In PMC4336329 (PLoS ONE, 2015):
Among all 310,000 compounds or so, about 14,000 (4.5%) showed an effect of 50% or more. Effects have a minus sign here. The list shows a part of the results.

Target: human ether-à-go-go-related gene (hERG) potassium channel (human, UniProt Q12809)
Experiment: primary screen, population patch clamp on CHO cells stably expressing hERG
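Also: peak tail current of the secondary pulse compared with the same well before compound.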

human ether-à-go-go-related gene (hERG) potassium channel, sequence (Q12809 whole entry, looked up): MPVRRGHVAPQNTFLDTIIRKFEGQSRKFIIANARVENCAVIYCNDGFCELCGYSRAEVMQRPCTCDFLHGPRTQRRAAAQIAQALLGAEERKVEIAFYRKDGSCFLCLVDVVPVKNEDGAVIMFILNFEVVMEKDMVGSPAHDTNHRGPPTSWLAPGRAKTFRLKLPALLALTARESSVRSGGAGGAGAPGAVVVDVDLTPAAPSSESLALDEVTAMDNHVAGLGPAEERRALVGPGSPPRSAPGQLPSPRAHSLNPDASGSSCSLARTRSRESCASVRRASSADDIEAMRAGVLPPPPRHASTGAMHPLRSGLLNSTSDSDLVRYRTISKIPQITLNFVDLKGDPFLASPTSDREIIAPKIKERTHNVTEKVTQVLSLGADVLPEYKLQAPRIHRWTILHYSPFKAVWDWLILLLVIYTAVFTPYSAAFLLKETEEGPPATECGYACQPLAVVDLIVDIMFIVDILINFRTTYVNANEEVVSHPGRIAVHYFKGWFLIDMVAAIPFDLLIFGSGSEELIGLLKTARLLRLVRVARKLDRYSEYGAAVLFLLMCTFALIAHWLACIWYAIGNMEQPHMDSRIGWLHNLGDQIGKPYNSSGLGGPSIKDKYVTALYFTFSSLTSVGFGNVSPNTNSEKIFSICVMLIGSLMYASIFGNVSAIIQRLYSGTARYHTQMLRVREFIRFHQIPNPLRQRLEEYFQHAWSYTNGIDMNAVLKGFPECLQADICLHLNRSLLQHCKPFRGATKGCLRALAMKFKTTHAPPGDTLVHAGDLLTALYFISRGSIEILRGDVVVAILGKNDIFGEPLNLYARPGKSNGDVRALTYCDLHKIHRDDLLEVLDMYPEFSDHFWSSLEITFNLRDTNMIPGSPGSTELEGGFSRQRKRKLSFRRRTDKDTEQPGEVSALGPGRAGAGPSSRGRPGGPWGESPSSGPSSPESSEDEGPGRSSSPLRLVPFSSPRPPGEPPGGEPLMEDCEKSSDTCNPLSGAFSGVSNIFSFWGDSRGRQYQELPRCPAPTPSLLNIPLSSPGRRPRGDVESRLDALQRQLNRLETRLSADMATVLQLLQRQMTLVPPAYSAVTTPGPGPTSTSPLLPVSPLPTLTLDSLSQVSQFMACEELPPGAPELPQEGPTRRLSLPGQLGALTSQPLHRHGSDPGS

Compound	hERG current change (%, negative = inhibition) at 10uM [%]
Cc1cc(C)c(N=C2CCCN2Cc2ccccc2)c(C#N)c1	-12.8
CCOc1ccc(Cn2c(=O)oc3ccc(C)cc32)cc1OC	12.8
CC1=C(C(=O)OCc2ccccc2)C(c2ccccc2Cl)NC(=O)N1CCCC(=O)O (stereo not drawn)	6.84
CC(Oc1ccc2c(-c3ccccc3)cc(=O)oc2c1)C(=O)NCC(O)c1ccccc1 (stereo not drawn)	-13
CC1=C(C(=O)OCc2ccccc2)C(c2ccc(C)o2)C2=C(CCCC2=O)N1 (stereo not drawn)	-23.7
CC(NC(=O)c1ccc(NC(=O)CC2SC(N3CCCC3)=NC2=O)cc1)c1ccc(S(N)(=O)=O)cc1 (stereo not drawn)	15.3
COc1ccc(/C=C/C(=O)Nc2cc(F)ccc2C)cc1S(=O)(=O)N1CCOCC1	-2.78
COC(=O)c1ccccc1NS(=O)(=O)c1ccc(O)c(C(=O)O)c1	-11.6
CC1OC(Oc2ccc3ccc(=O)oc3c2-c2c(O)ccc3cc(Oc4ccc5ccc(=O)oc5c4)c(=O)oc23)C(O)C(O)C1O (stereo not drawn)	4.52
COc1ccc(N2CC(C(=O)N3CCN(C(=O)c4ccco4)CC3)CC2=O)cc1 (stereo not drawn)	-53.3
COc1ccc(C(=O)CC(=O)C(=O)Nc2ccccc2Cl)cc1	11
Cc1ccc(C)c(C(=O)Cn2ncc(Cl)c(Cl)c2=O)c1	8.24
O=C(C1=C[C@H](c2coc3ccccc3c2=O)C[C@H](OCCCCO)O1)N1CCN(Cc2ccccc2)CC1	-61.5
Cc1ccc(C(=O)NCCCn2ccnc2)cc1[N+](=O)[O-]	4.53
Cn1c(=O)c2[nH]c(CN3CCN(Cc4ccccc4)CC3)nc2n(C)c1=O	-6.12
Cc1cc(NC(=O)c2ccccc2)sc1C	5.55
Fc1cccc(Cl)c1CSC1=NCCS1	4.97
COc1ccccc1C(=O)COC(=O)c1nc2nc(C)cc(C)n2n1	13.9
CCOC(=O)C1(CCc2ccccc2)CCN(Cc2cccc3nccnc23)CC1	-60.5
COc1ccccc1C(=O)NNC(=O)CCCN1C(=O)/C(=C/c2cccs2)SC1=S	14.6
CCC(C(=O)O)n1nnc(-c2ccc(-c3ccc(OC)cc3)cc2)n1 (stereo not drawn)	12
O=C(COC(=O)Cc1ccsc1)Nc1ccc(F)cc1Cl	9.43

Compound	hERG current change (%, negative = inhibition) at 10uM [%]
COc1ccc(CCN(C)C(=O)C2CCCN(Cc3ccc(OC)c(OC)c3)C2)cc1OC (stereo not drawn)	9.21
CC1(C)CC(=O)C(C=NCc2cccnc2)=C(O)C1	-7.87
Nc1nc[nH]c(=O)c1N=Cc1ccccc1	25.3
COc1ccc(C)cc1NC(=O)C(=O)N/N=C(\C)CC(=O)Nc1cccnc1	2.77
Cc1cc(C)cc(C(=O)N2CCCCCC2)c1	-0.852
O=C(C1CCC(=O)N1Cc1ccccc1Cl)N1CCN(c2ccc(F)cc2)CC1 (stereo not drawn)	-44.9
COc1ccc(CNS(=O)(=O)CCNC(=O)c2ccccc2)cc1	-4.36
c1ccc(-c2cc(N3CCCCC3)ncn2)cc1	-9.9
O=C(NC1C2CCCC1CN(C1CC1)C2)c1ccc(Cl)cc1 (stereo not drawn)	5.81
Cc1cc(C)c2sc(N(CCCN(C)C)C(=O)c3ccc(S(=O)(=O)N4CCc5ccccc5C4)cc3)nc2c1.Cl	4.44
O=C(c1ccc(S(=O)(=O)Nc2ccccc2)cc1)N1CCCC1	11.4
COc1ccc(NC(=O)Cc2c(SC)c3ccccc3n2Cc2ccccc2)cc1	12.6
Cc1ccc(CN2C(=O)CN=C(c3ccccc3)c3ccccc32)cc1	-4.94
Cc1nn(-c2ccccc2)c2nc(N)c(C#N)c(-c3ccc(C(C)(C)C)cc3)c12	16.7
CC(C)C(NC(N)=O)C(=O)NC1CCCCC1 (stereo not drawn)	17.6
Cc1cc(C)c2cc(C#N)c(NCCOC(=O)c3ccccc3C)nc2c1	-54.8
C/C(=N\NC(=O)C(=O)Nc1c(C)n(C)n(-c2ccccc2)c1=O)c1ccc(Cl)s1	-4.11
O=C(O)c1ccc(N2CCN(Cc3ccc4c(c3)OCO4)CC2)c([N+](=O)[O-])c1	17.3
Cc1ccccc1NC(=O)NNC(=O)c1ccc2ccccc2c1O	16.4
O=[N+]([O-])c1cccc(NC(=S)N2CCc3ccccc3C2)c1	12.1
Cc1ccc(C(=O)/C=C/c2cn(CN3CCN(C)CC3)c3ccccc23)cc1	1.42
Cc1cc(NC(=O)c2cc3n(n2)C(C(F)(F)F)CC(c2ccc(Cl)c(Cl)c2)N3)no1 (stereo not drawn)	2.64

Compound	hERG current change (%, negative = inhibition) at 10uM [%]
CCOC(=O)C(C)Oc1ccc2c(C)cc(=O)oc2c1C(C)=O (stereo not drawn)	-13.8
CCCCNc1cc(C)nc(NCc2ccccc2)n1	-59
COc1ccccc1C(=O)Nc1nnc(CCc2ccccc2)s1	7.22
COc1cc(CN2CC(=O)N(c3ccc(C)c(C)c3)C2=S)cc(OC)c1OC	0.456
O=C(c1ccc(S(=O)(=O)N2CCOCC2)cc1)N1CCN(c2ccccn2)CC1	4.62
Cc1nn(C)c(NC(=O)c2ccc(Cl)cc2Cl)c1Br	-11.4
Cc1ccc(C(=O)NCC(=O)NC23CC4CC(CC(C4)C2)C3)cc1	14.3
COCCNC(=O)/C(C#N)=C/c1ccc(O)cc1	10.6
CN1CCN(C(=O)c2cc([N+](=O)[O-])cc([N+](=O)[O-])c2)CC1	16.7
COc1ccc(-n2nc(C(=O)NCC(=O)NCc3ccco3)c3ccccc3c2=O)cc1	-9.11
Cc1cccc(/C=N/NC(=O)Cc2ccc(Cl)cc2)c1O	18.6
Cc1c(/C(O)=C2\C(=O)C(=O)N(CCN(C)C)C2c2ccco2)cnn1-c1ccccc1 (stereo not drawn)	-0.172
Cc1nc(N(C)Cc2ccccc2)c2c(C)c(C)sc2n1	-14.8
COc1ccc(-n2nc(C(=O)NCC(=O)NCCCN3CCC(C)CC3)c3ccccc3c2=O)cc1Cl	-74.2
COc1ccc(NC(C)=O)cc1S(=O)(=O)N1CCN(C(=O)c2ccccc2F)CC1	-7.16
O=C(/C=C/c1ccccc1)N1CCN(c2ccccn2)CC1	-42.8
COc1ccc(C(=O)COC(=O)c2ccc(-n3cnnn3)cc2)c(OC)c1	5.26
CCOC(=O)C(C)/C(C)=N/NC(N)=S (stereo not drawn)	14.4
Cc1ccc(S(=O)(=O)Nc2cc3c4c(c2)CC(=O)N4CCC3)cc1	-20
O=C(c1ccccc1)c1ccc2c(c1)OCCCO2	-5.56
Nc1nc(Cl)cc(NCCc2ccc(O)cc2)n1	9.4
CC(C)COC(=O)C(C#N)c1nc2ccccc2nc1N1CCN(Cc2ccc3c(c2)OCO3)CC1 (stereo not drawn)	-6.51

Compound	hERG current change (%, negative = inhibition) at 10uM [%]
O=C(NNC1=C(C(=O)C(F)(F)F)CCC1)c1ccc(Cl)cc1	12.7
COC(=O)c1cc(S(=O)(=O)Nc2cccc(S(N)(=O)=O)c2)oc1C	17.4
Cc1ccc(NC(=O)NN2CCOCC2)cc1	15
NC(=S)Cc1ccc(Cl)cc1Cl	18.8
COc1ccc(S(=O)(=O)N(C)CC(=O)NCCCn2ccnc2)cc1Cl	0.299
COC(=O)c1cc2nc(-c3ccccc3)cc(C)n2n1	-4.83
CCOC(=O)c1c(CN2CCC(C)CC2)n(C)c2cc(Br)c(OC)cc12	10.5
CCOC(=O)C(NC(=O)c1ccccc1F)(Nc1cc(C)on1)C(F)(F)F (stereo not drawn)	12.8
CC1(OC(=O)CCc2ccccc2)C(=O)C=C2C=C(C3CC3)OC=C2C1=O (stereo not drawn)	1.57
Cc1cc(Cl)ccc1OCCCC(N)=O	2.71
O=C(Nc1cccc(S(=O)(=O)N2CCCC2)c1)c1ccc2c(c1)OCO2	-0.147
Cc1nnc(SCc2ccc(Cl)cc2Cl)[nH]c1=O	0.462
O=C(Nc1ccc([N+](=O)[O-])cc1Cl)c1cc(Cl)ccc1O	7.32
COc1ccc(S(=O)(=O)Nc2cc(C)c(O)c(S(=O)(=O)c3ccccc3)c2)cc1	-16.3
Cc1ccc(O)c(-c2cc(C(=O)Nc3c(C)n(C)n(-c4ccccc4)c3=O)[nH]n2)c1	8.4
CC(=O)NCC(=O)N1CCCC(C(=O)c2ccc(Oc3ccccc3)cc2)C1 (stereo not drawn)	-23.2
CCOC(=O)c1c(NC(=O)CSc2nnc(-c3c[nH]c4ccccc34)n2C)sc2c1CCCC2	3.93
CC(C)CCn1nnnc1CN1CCN(c2ccccc2)CC1	-1.04
O=C(CSc1nc(-c2ccccc2)nc2c1Cc1ccccc1O2)Nc1ccccc1	-0.581
O=S(=O)(c1ccccc1)N1CCC(O)(CSc2ccc(Cl)cc2)CC1	8.28
CCCCC(=O)NC(=S)NNC(=O)CC#N	8.08
